The values below come from PubChem BioAssay AID485344 (National Center for Advancing Translational Sciences (NCATS), 2010).

Screen size: about 340,000 compounds; about 6,900 (2%) were called active. Rule as the data show it: active = inhibition above about 30%; inactive = below that, where a call was filed. This is a selection; strong and weak results do not stand in their true shares. The source gives no active or inactive call for entries shown without one.

The target in this assay is D(2) dopamine receptor (Homo sapiens) (UniProt P14416). As to the kind of experiment: HTS Assay for Allosteric Antagonists of the Human D2 Dopamine Receptor: Primary Screen for Antagonists. Also: 0% is about no effect. The settings on record: HEK293 TREx D2 cells, calcium flux, dopamine EC80; at 10 µM; stronger effect = higher value. The procedure, abridged: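 HEK293 T-REx D2 cells, tet-induced, calcium dye no-wash. Cpd pintool add, 180 s kinetic, then EC80 DA, 180 s kinetic. Ca flux read.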
Chain of UniProt P14416 (P14416 whole entry, looked up): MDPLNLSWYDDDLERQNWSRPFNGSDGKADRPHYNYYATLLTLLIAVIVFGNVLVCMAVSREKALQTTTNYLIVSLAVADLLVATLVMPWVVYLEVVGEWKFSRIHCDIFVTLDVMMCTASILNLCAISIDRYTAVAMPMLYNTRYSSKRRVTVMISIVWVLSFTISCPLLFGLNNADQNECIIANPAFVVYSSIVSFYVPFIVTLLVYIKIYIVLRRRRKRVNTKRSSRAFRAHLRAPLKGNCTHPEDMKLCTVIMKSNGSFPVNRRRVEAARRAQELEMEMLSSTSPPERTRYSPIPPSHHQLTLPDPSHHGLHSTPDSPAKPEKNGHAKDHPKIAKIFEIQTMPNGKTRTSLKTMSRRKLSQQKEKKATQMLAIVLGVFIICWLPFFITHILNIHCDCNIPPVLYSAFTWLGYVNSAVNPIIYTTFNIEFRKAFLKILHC
With `O=C(NCc1cccs1)c1ccc2c(c1)N(Cc1cccc(F)c1)C(=O)c1ccccc1S2`, the inhibition turned out to be 18.5%. Consider `CCc1ccc(NC(=O)CN(c2ccc(Cl)cc2)S(=O)(=O)c2ccsc2C(=O)OC)cc1`, for which the inhibition is -5.78%.

Turning to `CCOc1ccc(NC(=O)c2c(NCc3cccc(OC)c3OC)sc3c2CCC3)cc1`, the inhibition is -24.7%. For `Nc1c(C(=O)Nc2ccccc2Cl)c2ccccn2c1C(=O)c1ccccc1` the value was -1.43%.

For `COc1ccc(Cn2c(O)c(C=Nc3ccccc3C(=O)O)c3ccccc3c2=O)cc1`, the inhibition is active: 32.2%. Turning to `Cc1ccc(C)c(CN2C(=O)C(O)(c3c(C)[nH]c4ccccc34)c3ccccc32)c1` (configuration not stated), the inhibition is 0.734%.

Turning to `O=C(C1CCCN(S(=O)(=O)c2cccc3nsnc23)C1)N1CCN(c2ccccc2)CC1` (configuration not stated), the inhibition is 7.94%.

In the case of `O=C1NCN(c2ccccc2)C12CCN(CCCC(c1ccc(F)cc1)c1ccc(F)cc1)CC2`, the inhibition was active: 68.7%. Consider `CCOC(=O)N1CCN(C(=O)CN(c2ccccc2F)S(=O)(=O)c2ccc(C)cc2)CC1`, for which the inhibition is 2.87%. With `Cc1ccc(Cl)c(OCCN2CCc3ccccc3C2)c1`, the inhibition was active: 65.9%. For `Cc1ccc(Cn2cc(S(=O)(=O)c3cccc(Cl)c3)c(=O)c3cc(F)c(N4CCCCC4)cc32)cc1` the value was 8.5%; for `Cc1cc(N2CCC(C)CC2)nc2ccc(NC(=O)Cc3c(F)cccc3Cl)cc12`, 11.5%; for `COc1cc(OC)cc(N2C(=O)N(Cc3ccc(C(C)(C)C)cc3)c3ccccc3S2(=O)=O)c1`, -9.26%. For `COc1ccc(S(=O)(=O)N2CCC(C(=O)Nc3ccccc3)CC2)cc1OC` the value was 15.3%; for `COC(=O)c1scc(-c2ccc(C)cc2)c1S(=O)(=O)N1CCN(c2ccccc2)CC1`, 25%; for `COc1cccc(NC(=O)CC(=O)Nc2ccc3nc4n(c(=O)c3c2)CCCCC4)c1`, -17.7%. For `O=C(CCSCc1cccc(Cl)c1)N1CCN(c2ccc(Cl)cc2)CC1` the value was -1.24%; for `Cc1ccccc1C(=O)N1CC(=O)Nc2ccc(Cl)cc2C1c1ccccc1` (configuration not stated), -2.73%. As to `CC(C)(C)OC(=O)N1CCC[C@H]1C(=O)Nc1ccc(C#N)cc1`, the inhibition is active: 62.7%. For `O=C(c1cccc(Cl)c1)N1c2nc(-c3ccco3)nn2C2(CCCCC2)[C@@H]2CCCC[C@@H]21` the value was 18%; for `COc1ccc(CCNC(=O)CCCCn2c(=O)c3ccccc3n(CC(=O)Nc3c(C)cccc3C)c2=O)cc1OC`, -2.82%; for `C#CCn1c(=NC(=O)c2ccc3c(c2)OCCO3)sc2cc(OC)c(OC)cc21`, -24.2%.

As for `Cc1ccc(S(=O)(=O)c2nnn3c2nc(NC(C)C)c2cc(Cl)ccc23)cc1C`, the inhibition is 9.88%. For `CC1(C)N=C(SCc2ccccc2Cl)c2ccccc2N1` the value was -7.86%; for `Cc1cccc(-c2noc(-c3cccnc3NCc3ccc(Cl)cc3)n2)c1`, -20.2%. For `CCCCNC(=O)CSc1nc2n[nH]c(C)c2c(=N)n1-c1cccc(Cl)c1C`, the inhibition worked out at 11.7%. For `COc1ccc2c(c1)sc1ncc(C(=O)NCc3ccccc3F)c(=O)n12` the value was -3.28%; for `COc1ccc(S(=O)(=O)Nc2ccc3oc4c(c3c2)CCCC4)cc1`, 10.8%; for `Cc1sc2ncn(CC(=O)Nc3ccc(C(C)C)cc3)c(=O)c2c1S(=O)(=O)N1CCN(c2ncccn2)CC1`, 7.89%. For `CC(=O)N(c1ccccc1)c1nc(C)cc(C)c1C#N` the value was active: 35.3%. For `CCOc1ccc(Nc2nc3c(S(=O)(=O)c4ccc(C(C)C)cc4)nnn3c3ccsc23)cc1` the value was -2.32%. Turning to `CN(C(=O)COC(=O)C12CC3CC(CC(C3)C1)C2)c1c(N)n(Cc2ccccc2)c(=O)[nH]c1=O`, the inhibition is active: 46.7%. As to `COc1ccc(CCn2c3c(c(=O)[nH]c2=O)C(NC(=O)c2ccc(C(C)(C)C)cc2)(C(F)(F)F)C(=O)N3)cc1OC` (configuration not stated), the inhibition was -8.85%. For `CC(=O)c1cc(-c2ccc(F)cc2)n(CC(=O)Nc2cc(C)cc(C)c2)c1C` the value was -2.51%; for `Cc1ccc(C(C)C)c(OCCSc2nc3ccccc3n2CC(O)CO)c1` (configuration not stated), -2.97%; for `COc1ccccc1Cc1nc2ccccc2nc1SCC(=O)N1CCN(c2ccccc2)CC1`, 0.0416%.

On to `CC(C)Cn1c(-c2ccc(S(=O)(=O)N3CCOCC3)cc2)csc1=Nc1cc(Cl)ccc1Cl`, for which the inhibition was -7.44%. As to `COc1cccc(NC(=O)/C(C#N)=C/c2c(C)n(Cc3ccc(Cl)cc3)c3ccccc23)c1`, the inhibition is 3.4%. For `COC(=O)c1ccccc1NC(=O)c1cnc2c(-c3cccc(C)c3)c(C)nn2c1C` the value was 19.1%.

Turning to `Cc1nc2ccn(Cc3cccnc3)c(=O)c2cc1C(=O)N1CCN(c2ccc(F)cc2)CC1`, the inhibition was -1.07%. For the compound `CN(C)CCNc1oc(-c2ccc(COc3ccc(Cl)cc3)o2)nc1C#N`, the inhibition was -14.9%. For `COc1ccc(N2CCN(Cc3nnc(-c4cccc(Br)c4)o3)CC2)cc1` the value was 1.36%; for `COc1ccc(CCNC(=O)C(C)n2c(=O)cc(C(F)(F)F)c3c(C)nn(C)c32)cc1OC` (configuration not stated), 9.54%. For `Cc1cc(C)cc(Oc2nc3c(C)cccn3c(=O)c2/C=C(\C#N)c2nc3ccccc3s2)c1` the value was 5.74%; for `CCc1ccc(C(=O)c2cn(Cc3ccc(F)cc3)c3cc(OC)c(OC)cc3c2=O)cc1`, 14.2%. For `CCS(=O)(=O)N1CC(=O)N(c2ccc(Cl)cc2)C(C)(C(=O)NC2CCCCCC2)C1` (configuration not stated) the value was 9.34%; for `Cc1cccc(C(=O)N[C@H](C(=O)NCCc2ccc(Cl)cc2)C(C)C)c1`, active: 38.5%; for `Cc1nnc(NC(=O)CSCc2cc(=O)c3ccccc3[nH]2)s1`, 9.95%. Turning to `CNC(=O)c1ccc(NC(=O)CC2SC(N3CCCC3)=NC2=O)cc1` (configuration not stated), the inhibition is active: 38.5%. For `CNCc1c(OCc2ccc(F)cc2)ccc2ccccc12` the value was active: 74.4%; for `COc1ccc(Cl)cc1NC(=O)C1CCN(C(=O)C2CC(=O)N(c3ccc(C)cc3)C2)CC1` (configuration not stated), active: 36.9%; for `COc1ccc(CCNC(=O)CCn2c(=O)c3ccccc3n(Cc3ccccc3)c2=O)cc1OC`, -11%. For `Cc1ccc(CNC(=O)CNS(=O)(=O)c2cccs2)cc1` the value was 11%; for `CCCCCn1c(=O)[nH]c2cc(C(=O)N3CCN(c4cccc(C(F)(F)F)c4)CC3)ccc2c1=O`, -3.39%; for `Cc1ccc(NC(=O)C2CCN(c3nn4cc(-c5ccc(C)cc5)nc4s3)CC2)cc1`, -9.96%.

As for `O=C(Nc1ccc(Br)cc1)C1CCCN1S(=O)(=O)c1ccc(F)cc1` (configuration not stated), the inhibition was -13%.

For `CC(C)(C)c1ccc(C(=O)Nc2sc3c(c2C#N)CCC(C(C)(C)C)C3)cc1` (configuration not stated), the inhibition is -12%. For `COc1ccc(CNC(=O)c2oc3c(c2C)-c2nn(Cc4ccc(Cl)cc4)cc2CC3)cc1` the value was -13.7%; for `COc1ccc(OC)c2sc(N(Cc3cccnc3)C(=O)c3ccco3)nc12`, -6.66%. As to `Cc1cc(NC(=O)CN2C(=O)c3cccnc3Sc3ccccc32)ccc1Br`, the inhibition was -5.09%. As for `CCc1ccccc1NC(=O)Nc1nnc(N(CC)c2ccccc2)s1`, the inhibition is 6.45%. For the compound `Cc1ccc(CNC(=O)c2cc(-c3ccc(Cl)cc3)on2)cc1`, the inhibition is -8.55%. For `CCN1CCN(c2ncc3c(n2)CC(c2ccccc2O)CC3=O)CC1` (configuration not stated) the value was 7.04%; for `Cc1ccc2oc(=O)c(S(=O)(=O)c3ccc(C(C)(C)C)cc3)cc2c1`, 18.4%; for `CC1CN(CCCCOc2ccc(Cl)c3ccccc23)CC(C)O1` (configuration not stated), active: 58.3%. Regarding `Cc1nc2scc(C)n2c(=O)c1S(=O)(=O)NCCc1ccccc1`, the inhibition was -14.8%. For `CCOc1ccc(N(C)S(=O)(=O)c2ccc3[nH]cc(C(=O)NCc4ccccc4)c(=O)c3c2)cc1` the value was -8.93%; for `Cc1ccc(C(=O)c2cn(Cc3ccc(Cl)cc3)c3nc(C)ccc3c2=O)cc1`, -10.9%; for `COc1ccc(N2CCN(C(=O)CSc3n[nH]c(-c4ccccc4Cl)n3)CC2)cc1`, -14.6%.

`Cc1cc(C)cc(N2C(=O)N(Cc3cccc(F)c3)c3ccccc3S2(=O)=O)c1`: the inhibition is -4.73%. For `Cc1ccc(C)c(CN2C(=O)c3ccccc3S(=O)(=O)c3ccc(C(=O)NCCC4=CCCCC4)cc32)c1` the value was 14.1%; for `Cc1cc(C)c(NC(=O)C(C)n2nnc3sc4c(c3c2=O)CCCC4)c(C)c1` (configuration not stated), 23.9%.

Turning to `CCCCCc1cc(=O)oc2c(C(CCN3CCN(c4ccccc4)CC3)c3ccc4c(c3)OCO4)c(OC)cc(OC)c12` (configuration not stated), the inhibition was active: 50.1%. In the case of `COc1ccc(Nc2oc(-c3ccc(COc4ccccc4C)o3)nc2C#N)cc1`, the inhibition is -10.7%. For `CCN(C(=O)c1cc2c(=O)oc3ccc(C)cc3c2s1)c1ccccc1C` the value was -14.4%.

Consider `CCN(CC)S(=O)(=O)c1ccc2nc(NC(=O)c3cncc(Br)c3)sc2c1`, for which the inhibition is -28.5%. For `Cc1cccn2c(=O)c(C(=O)NC(C)c3ccccc3)cnc12` (configuration not stated) the value was -9.04%; for `Cc1ccc(OCc2nc(-c3ccc(C(=O)NCc4ccc(OC(C)C)cc4)cc3)oc2C)cc1`, 4.01%. On to `CC1CCCCN1C(=O)c1cc(-c2ccc(Br)cc2)on1` (configuration not stated), for which the inhibition worked out at 20.9%.

`COc1ccc(C2N=C(N)Nc3nc4ccccc4n32)cc1` (configuration not stated): the inhibition was 0.106%. For `CC1=C(C(=O)N2CCN(c3cccc(Cl)c3)CC2)C2(CCCCC2)OC1=O` the value was 6.51%. For `O=C(CN(c1ccc(Cl)c(C(F)(F)F)c1)S(=O)(=O)c1ccccc1)N1CCOCC1` the value was active: 34.9%. For `CCOC(=O)C1CCN(c2nc3c(S(=O)(=O)c4ccc(C)c(C)c4)nnn3c3ccc(Cl)cc23)CC1` the value was -2.18%.

`CC(C)(C)C1CCc2oc3ccc(NS(=O)(=O)c4ccc(C(=O)O)cc4)cc3c2C1` (configuration not stated): the inhibition stood at 21.6%.

Consider `COc1ccc(Cn2c(SCC(=O)N(C)Cc3ccccc3)nc3ccccc32)cc1`, for which the inhibition worked out at 0.478%.

Turning to `Cc1ccc(NC(=O)Cn2c(=O)nc(-c3ccccc3)c3ccccc32)cc1F`, the inhibition turned out to be 0.428%. For `CN1CCc2c(sc3c2C(=O)NC(c2ccc(C(C)(C)C)cc2)N3)C1` (configuration not stated) the value was 18.8%; for `O=C(Nc1cnc(N2CCN(c3ccccc3)CC2)c(C(=O)O)c1)c1cccs1`, 13.9%; for `Cc1cccc(-c2noc(-c3ccc(N4CCOCC4)c([N+](=O)[O-])c3)n2)c1`, -4.43%.

For `CC1CCN(S(=O)(=O)c2ccc3c(ccc(=O)n3CC(=O)Nc3cccc(F)c3)c2)CC1`, the inhibition was -5.03%. Take `CCN(Cc1ccccc1)S(=O)(=O)c1ccc(C(=O)Nc2nnc(-c3ccccc3OC)o2)cc1`: the inhibition was active: 41.6%. For `Cc1ccc(NC(=O)c2cc(S(=O)(=O)NCCc3ccc(Cl)cc3)ccc2F)cc1` the value was 0.527%.

Broadly, the inhibition is the drop in the measured response relative to a control, in per cent.
